# PubChem BioAssay (Tox21)
# The inconclusive results got no clear call from the source. A potency beside an inconclusive call is a rough fit, not a confirmed value.
# Molecular target: Cytochrome P450 1A2 (Homo sapiens) (UniProt P05177)
# Assay: Cytochrome P450 Family 1 Subfamily A Member 2 (CYP1A2) small molecule antagonists: luciferase reporter qHTS assay (AID 1671199); note: nearly all actives have a fitted effect of over 50% in size
# Settings: P450-Glo CYP1A2 enzyme, luciferin luminescence, 1 h; series mostly up to 115 µM; active = well fitted inhibition curve with a large enough effect in the repeat runs; inconclusive = weak or mixed curves; inactive = no such curve, though single readings can be large or run the other way
# Procedure, shortened: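 Read-out is luminescence from luciferin detection reagent (20 min) proportional to CYP1A2 activity; compounds in DMSO preincubated 10 min with enzyme and proluciferin substrate, then NADPH regeneration solution, 1 h, room temperature.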
# Potency is the fitted concentration of half-maximal effect; tags give direction and shape of the fitted curve.
# Chain of UniProt P05177 (P05177 whole entry, looked up): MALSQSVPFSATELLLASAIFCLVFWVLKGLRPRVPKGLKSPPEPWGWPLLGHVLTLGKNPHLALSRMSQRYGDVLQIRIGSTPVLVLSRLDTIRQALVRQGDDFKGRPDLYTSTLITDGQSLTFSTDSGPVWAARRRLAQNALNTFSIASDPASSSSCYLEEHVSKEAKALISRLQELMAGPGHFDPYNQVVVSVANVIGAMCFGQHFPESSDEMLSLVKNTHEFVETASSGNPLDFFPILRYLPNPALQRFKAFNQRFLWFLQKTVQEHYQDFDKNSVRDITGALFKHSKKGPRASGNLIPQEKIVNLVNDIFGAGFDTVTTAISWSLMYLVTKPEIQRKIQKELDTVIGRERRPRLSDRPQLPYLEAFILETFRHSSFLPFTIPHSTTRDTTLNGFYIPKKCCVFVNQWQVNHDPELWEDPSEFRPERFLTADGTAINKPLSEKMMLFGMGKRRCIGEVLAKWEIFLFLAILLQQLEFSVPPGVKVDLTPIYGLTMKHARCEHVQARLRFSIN
row,SMILES,Potency
1,CCc1cccc2c3c([nH]c12)C(CC)(CC(=O)O)OCC3 (stereo not drawn),"inconclusive: 63.1 µM [inhibitor, partial curve, poor fit]"
2,Nc1cc(-c2ccncc2)c[nH]c1=O,"inconclusive: 32.3 µM [inhibitor, partial curve]"
3,COC(=O)CCCCCCCC(=O)OC,"inconclusive: 28.3 µM [inhibitor, full curve]"
